Reference: the supplement of paper PMC12230231

Each sequence was assayed on SIVsab (simian immunodeficiency virus of sabaeus monkeys), single-cycle GFP reporter, in CRFK cells (assay: enrichment among uninfected cells over input (fold); higher = stronger restriction). Conditions: library: human / rhesus combinations.
Protocol: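 Pools of CRFK cells expressing variants of the TRIM5α v1 loop were challenged with the single-cycle reporter, sorted by GFP and sequenced; mean of two replicates.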

Row | Sequence | enrichment
1 | MASGILVNVKEEVTCPICLELLTQPLSLDCGHSFCQACLTANHKKSMLDKGESSCPVCRISYQPENIRPNRHVANIVEKLREVKLSPEGQKVDHCARHGEKLLLFCQEDGKVICWLCERSQEHRGHHTFLTEEVAREYQVKLQAALEMLRQKQQEAEELEADIREEKASWKTQIQYDKTNVLADFEQLRDILDWEESNELQNLEKEEEDILKSLTNSETEMVQQTQSLRELISDLEHRLQGSVMELLQGVDGVIKRTENVTLKKPETFPKNQRRVFRAPDLKGMLEVFRELTDVRRYWVDVTVAPNNISCAVISEDKRQVSSPKPQIIYQARGTLFTFQTFVNFNYCTGILGSQSITSGKHYWEVDVSKKTAWILGVCAGFQPDAMCNIEKNENYQPKYGYWVIGLEEGVKCSAFQDSSFHTPSVPFIVPLSVIICPDRVGVFLDYEACTVSFFNITNHGFLIYKFSHCSFSQPVFPYLNPRKCGVPMTLCSPSS [human TRIM5α, 330-340 = QARGTLFTFQTFV] | 0.012 ± 0.016
2 | MASGILVNVKEEVTCPICLELLTQPLSLDCGHSFCQACLTANHKKSMLDKGESSCPVCRISYQPENIRPNRHVANIVEKLREVKLSPEGQKVDHCARHGEKLLLFCQEDGKVICWLCERSQEHRGHHTFLTEEVAREYQVKLQAALEMLRQKQQEAEELEADIREEKASWKTQIQYDKTNVLADFEQLRDILDWEESNELQNLEKEEEDILKSLTNSETEMVQQTQSLRELISDLEHRLQGSVMELLQGVDGVIKRTENVTLKKPETFPKNQRRVFRAPDLKGMLEVFRELTDVRRYWVDVTVAPNNISCAVISEDKRQVSSPKPQIIYQAPGTRYTFQSFTNFNYCTGILGSQSITSGKHYWEVDVSKKTAWILGVCAGFQPDAMCNIEKNENYQPKYGYWVIGLEEGVKCSAFQDSSFHTPSVPFIVPLSVIICPDRVGVFLDYEACTVSFFNITNHGFLIYKFSHCSFSQPVFPYLNPRKCGVPMTLCSPSS [human TRIM5α, 330-340 = QAPGTRYTFQSFT] | 0.135 ± 0.031
3 | MASGILVNVKEEVTCPICLELLTQPLSLDCGHSFCQACLTANHKKSMLDKGESSCPVCRISYQPENIRPNRHVANIVEKLREVKLSPEGQKVDHCARHGEKLLLFCQEDGKVICWLCERSQEHRGHHTFLTEEVAREYQVKLQAALEMLRQKQQEAEELEADIREEKASWKTQIQYDKTNVLADFEQLRDILDWEESNELQNLEKEEEDILKSLTNSETEMVQQTQSLRELISDLEHRLQGSVMELLQGVDGVIKRTENVTLKKPETFPKNQRRVFRAPDLKGMLEVFRELTDVRRYWVDVTVAPNNISCAVISEDKRQVSSPKPQIIYQAPGTLYTFQTLVNFNYCTGILGSQSITSGKHYWEVDVSKKTAWILGVCAGFQPDAMCNIEKNENYQPKYGYWVIGLEEGVKCSAFQDSSFHTPSVPFIVPLSVIICPDRVGVFLDYEACTVSFFNITNHGFLIYKFSHCSFSQPVFPYLNPRKCGVPMTLCSPSS [human TRIM5α, 330-340 = QAPGTLYTFQTLV] | 0.0903 ± 0.014
4 | MASGILVNVKEEVTCPICLELLTQPLSLDCGHSFCQACLTANHKKSMLDKGESSCPVCRISYQPENIRPNRHVANIVEKLREVKLSPEGQKVDHCARHGEKLLLFCQEDGKVICWLCERSQEHRGHHTFLTEEVAREYQVKLQAALEMLRQKQQEAEELEADIREEKASWKTQIQYDKTNVLADFEQLRDILDWEESNELQNLEKEEEDILKSLTNSETEMVQQTQSLRELISDLEHRLQGSVMELLQGVDGVIKRTENVTLKKPETFPKNQRRVFRAPDLKGMLEVFRELTDVRRYWVDVTVAPNNISCAVISEDKRQVSSPKPQIIYQARGTRYPTLVNFNYCTGILGSQSITSGKHYWEVDVSKKTAWILGVCAGFQPDAMCNIEKNENYQPKYGYWVIGLEEGVKCSAFQDSSFHTPSVPFIVPLSVIICPDRVGVFLDYEACTVSFFNITNHGFLIYKFSHCSFSQPVFPYLNPRKCGVPMTLCSPSS [human TRIM5α, 330-340 = QARGTRYPTLV] | 0.00101 ± 3.2e-05

Same assay, conditions: library: insertions and deletions

Row | Sequence | enrichment
5 | MASGILVNVKEEVTCPICLELLTQPLSLDCGHSFCQACLTANHKKSMLDKGESSCPVCRISYQPENIRPNRHVANIVEKLREVKLSPEGQKVDHCARHGEKLLLFCQEDGKVICWLCERSQEHRGHHTFLTEEVAREYQVKLQAALEMLRQKQQEAEELEADIREEKASWKTQIQYDKTNVLADFEQLRDILDWEESNELQNLEKEEEDILKSLTNSETEMVQQTQSLRELISDLEHRLQGSVMELLQGVDGVIKRTENVTLKKPETFPKNQRRVFRAPDLKGMLEVFRELTDVRRYWVDVTVAPNNISCAVISEDKRQVSSPKPQIIYGARGTRYQTFVNFFVNFNYCTGILGSQSITSGKHYWEVDVSKKTAWILGVCAGFQPDAMCNIEKNENYQPKYGYWVIGLEEGVKCSAFQDSSFHTPSVPFIVPLSVIICPDRVGVFLDYEACTVSFFNITNHGFLIYKFSHCSFSQPVFPYLNPRKCGVPMTLCSPSS [human TRIM5α, 4-codon duplication at 339] | 0.24 ± 0.34
6 | MASGILVNVKEEVTCPICLELLTQPLSLDCGHSFCQACLTANHKKSMLDKGESSCPVCRISYQPENIRPNRHVANIVEKLREVKLSPEGQKVDHCARHGEKLLLFCQEDGKVICWLCERSQEHRGHHTFLTEEVAREYQVKLQAALEMLRQKQQEAEELEADIREEKASWKTQIQYDKTNVLADFEQLRDILDWEESNELQNLEKEEEDILKSLTNSETEMVQQTQSLRELISDLEHRLQGSVMELLQGVDGVIKRTENVTLKKPETFPKNQRRVFRAPDLKGMLEVFRELTDVRRYWVDVTVAPNNISCAVISEDKRQVSSPKPQIIYGARGTRYQTFVNFNYCTGILYCTGILGSQSITSGKHYWEVDVSKKTAWILGVCAGFQPDAMCNIEKNENYQPKYGYWVIGLEEGVKCSAFQDSSFHTPSVPFIVPLSVIICPDRVGVFLDYEACTVSFFNITNHGFLIYKFSHCSFSQPVFPYLNPRKCGVPMTLCSPSS [human TRIM5α, 6-codon duplication at 344] | 16 ± 21
7 | MASGILVNVKEEVTCPICLELLTQPLSLDCGHSFCQACLTANHKKSMLDKGESSCPVCRISYQPENIRPNRHVANIVEKLREVKLSPEGQKVDHCARHGEKLLLFCQEDGKVICWLCERSQEHRGHHTFLTEEVAREYQVKLQAALEMLRQKQQEAEELEADIREEKASWKTQIQYDKTNVLADFEQLRDILDWEESNELQNLEKEEEDILKSLTNSETEMVQQTQSLRELISDLEHRLQGSVMELLQGVDGVIKRTENVTLKKPETFPKNQRRVFRAPDLKGMLEVFRELTDVRRYWVDVTVAPNNISCAVISEDKRQVSSPKPQIIYGARGTRYQTFVNFNYITSGKHYWEVDVSKKTAWILGVCAGFQPDAMCNIEKNENYQPKYGYWVIGLEEGVKCSAFQDSSFHTPSVPFIVPLSVIICPDRVGVFLDYEACTVSFFNITNHGFLIYKFSHCSFSQPVFPYLNPRKCGVPMTLCSPSS [human TRIM5α, 9-codon deletion at 345] | 2.33 ± 1.4
8 | MASGILVNVKEEVTCPICLELLTQPLSLDCGHSFCQACLTANHKKSMLDKGESSCPVCRISYQPENIRPNRHVANIVEKLREVKLSPEGQKVDHCARHGEKLLLFCQEDGKVICWLCERSQEHRGHHTFLTEEVAREYQVKLQAALEMLRQKQQEAEELEADIREEKASWKTQIQYDKTNVLADFEQLRDILDWEESNELQNLEKEEEDILKSLTNSETEMVQQTQSLRELISDLEHRLQGSVMELLQGVDGVIKRTENVTLKKPETFPKNQRRVFRAPDLKGMLEVFRELTDVRRYWVDVTVAPNNISCAVISEDKRQVSSPKPQIIYGARGTRYQTFVVNFNYCTGILGSQSITSGKHYWEVDVSKKTAWILGVCAGFQPDAMCNIEKNENYQPKYGYWVIGLEEGVKCSAFQDSSFHTPSVPFIVPLSVIICPDRVGVFLDYEACTVSFFNITNHGFLIYKFSHCSFSQPVFPYLNPRKCGVPMTLCSPSS [human TRIM5α, 1-codon duplication at 340] | 2.14 ± 2.3

± gives the standard deviation of the averaged measurements. Restriction of a single-cycle SIVsab GFP reporter by TRIM5α v1-loop variants in CRFK cells. Human variants: read share among cells still uninfected after two challenges over input, higher = gained restriction. Rhesus variants: share among infected cells over input, higher = lost restriction. Reporter dose not given per row. No active / inactive call per row; the paper calls a change when both replicates lie above its controls (mean + 2 SD of stop or wild-type variants, or the top frameshift score). Residues outside the varied loop are taken from Swiss-Prot. The paper reads the human single-substitution scores as noise; they and the rhesus combinations repeat poorly (rank correlation 0.3 to 0.4), indel scores repeat only for the top variants, rhesus substitutions well (0.9).
